Measurements reported in PubChem BioAssay AID1508623 (National Center for Advancing Translational Sciences (NCATS), 2021).
The campaign covered roughly 48,000 compounds. About 450 (0.94%) were called active. The inconclusive results got no clear call from the source; some entries with a clear call stand among them for comparison. Calls follow the shape of the dose curve; as a rule, active = well fitted inhibition curve with a large enough effect; inconclusive = small, poorly fitted or top-dose-only effect; inactive = no such curve, though single readings can be large or run the other way. Potencies beside an inconclusive call are fits to weak or partial responses and may not hold up.

Assay: Primary qHTS for Identification of Small Molecule Inhibitors of Huntingtin Promoter Activity; also: nearly all actives have a fitted effect of over 50% in size
Conditions: HEK293 HTT promoter firefly luciferase reporter (activity 0% = vehicle and -100% = no light), 24 h; series mostly up to 57.5 µM
Method in brief: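 Quantitative HTS used concentration series of up to 57.5 uM final on HEK293 luciferase reporter cells, 24 h at 37 degrees C. Readout was Dual-Glo firefly luminescence.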
Potency is read from the fitted curve at half-maximal effect; tags tell the direction and shape of the fitted curve.

Compound	Potency
COc1ccccc1N1CCN(C(=O)Cn2c(=O)nc(-c3ccccc3)c3ccccc32)CC1	inconclusive: 39.8 µM [inhibitor, single point]
COc1cc(N2CCC(N3CCN(C)CC3)CC2)ccc1Nc1ncnc(Nc2ccccc2S(=O)(=O)C(C)C)n1	inconclusive: 19.3 µM [inhibitor, partial curve]
CCOC(=O)c1c(C)[nH]c(C)c1S(=O)(=O)N1CCCC(C(=O)N2CCN(c3cccc(Cl)c3)CC2)C1 (stereo unspecified)	inconclusive: 35.5 µM [inhibitor, single point]
COc1ccccc1C(=O)Nc1ccc(-c2cc(C(F)(F)F)nn2-c2ccccc2)cc1	inconclusive: 25.1 µM [inhibitor, single point]
Cc1ccc2[nH]cc(C(c3ccccc3)c3ccc(Cl)s3)c2c1 (stereo unspecified)	inconclusive: 20 µM [inhibitor, partial curve, poor fit]
CN1C(=O)c2ccccc2Sc2ccc(NC(=O)N3CCN(c4ccc(F)cc4)CC3)cc21	active: 28.2 µM
CCN1CCN(Cc2ccc(-c3cc4c(N[C@H](C)c5ccccc5)ncnc4[nH]3)cc2)CC1	inconclusive: 1.37 µM [inhibitor, full curve]
CCOc1ccc(CNC(=O)c2cc3cc(S(=O)(=O)N4CCCCC4)ccc3n2C)cc1	inconclusive: 12.6 µM [inhibitor, partial curve, poor fit]
Cc1ccn(-c2ccc(-c3ncco3)cc2)c(=O)c1-c1ccc2nc(N)ncc2c1	inactive
O=C1c2ccccc2-[n+]2ccc3c([nH]c4ccccc43)c21	inconclusive: 12.2 µM [inhibitor, full curve]
COc1ccc(C(=O)NCCc2csc(-c3ccc(Cl)cc3)n2)c(OC)c1	inconclusive: 39.8 µM [inhibitor, single point]
Cc1ccc(Cl)cc1-n1c(SCC(=O)NCc2ccccc2)nc2n[nH]c(C)c2c1=N	inconclusive: 12.6 µM [inhibitor, partial curve, poor fit]
CSc1ccc(CCNC(=O)CN2C(=O)COc3ccc(S(=O)(=O)N4CCCCCC4)cc32)cc1	inconclusive: 39.8 µM [inhibitor, single point]
CCOC(=O)N1CCN(S(=O)(=O)N2CCCC(C(=O)NCc3cc(Br)ccc3OC)C2)CC1 (stereo unspecified)	inconclusive: 39.8 µM [inhibitor, single point]
Cc1cccn2c(=O)c(C(=O)NC(C)c3ccccc3)c(O)nc12 (stereo unspecified)	inconclusive: 39.8 µM [inhibitor, single point]
O=C(c1ccccc1Cl)N1CCC(c2nc3ccccc3s2)CC1	inconclusive: 20 µM [inhibitor, partial curve, poor fit]
O=C(COc1ccc(Cl)cc1)NCC(c1ccco1)S(=O)(=O)c1ccc(F)cc1 (stereo unspecified)	inconclusive: 39.8 µM [inhibitor, single point]
Cc1ccc(CNS(=O)(=O)c2ccc3[nH]c4c(c3c2)CCCCC4)cc1	inconclusive: 22.4 µM [inhibitor, partial curve, poor fit]

Compound	Potency
COc1ccc(Cl)cc1NC(=O)Cn1nc(C(F)(F)F)c2c1CCCC2	inconclusive: 35.5 µM [inhibitor, single point]
Cc1ccc(Cl)cc1-n1ncc2c(Nc3ccc4c(c3)OCCO4)ncnc21	inconclusive: 28.2 µM [inhibitor, partial curve]
CCc1ccc(NC(=O)c2ccc(Cn3nc(N4CCN(c5ccccc5)CC4)ccc3=O)o2)cc1	inconclusive: 17.8 µM [inhibitor, partial curve, poor fit]
COc1ccc(-c2cc3ncc(C(=O)c4cc([N+](=O)[O-])ccc4O)cn3n2)cc1	inconclusive: 28.2 µM [inhibitor, partial curve, poor fit]
CCOC(=O)c1cc(-c2ccccc2)n(CC(=O)Nc2ccccc2OCC)c1C	inactive
Cn1nnnc1SCCCNCc1cc(Br)ccc1OCc1ccccc1F	inconclusive: 22.4 µM [inhibitor, partial curve]
Fc1ccc(-c2csc(=Nc3cccc(C(F)(F)F)c3)n2Cc2ccc3c(c2)OCO3)cc1	inconclusive: 28.2 µM [inhibitor, partial curve, poor fit]
Cc1cc(Nc2nc(N[C@@H](C)c3ccc(F)cc3)c(C#N)cc2F)n[nH]1	inconclusive: 6.85 µM [inhibitor, partial curve]
CCN(CC)C(=O)c1cnn(-c2ccc(F)cc2)c1-n1cccc1	inconclusive: 44.7 µM [inhibitor, single point]
COc1ccc(N2CCN(C(=O)c3ccc4c(=O)n(CCc5ccc(OC)c(OC)c5)c(=O)[nH]c4c3)CC2)cc1	inconclusive: 3.98 µM [inhibitor, full curve]
COc1ccc(CNC(=O)c2cc3c(-c4ccccc4F)nn(C)c3s2)cc1	inconclusive: 35.5 µM [inhibitor, single point]
CC/C(=C(/CC)c1ccc(O)cc1)c1ccc(O)cc1	inconclusive: 22.4 µM [inhibitor, single point]
COc1cccc(Cc2nc3ccccc3nc2SCC(=O)N2CCN(c3ccccc3)CC2)c1	inconclusive: 28.2 µM [inhibitor, single point]
CSc1ccc2c(c1)N(CCC1CCCCN1C)c1ccccc1S2 (stereo unspecified)	inconclusive: 20 µM [inhibitor, partial curve, poor fit]
CCOc1ccc(-c2c(C)nn3c(C)c(C(=O)NCCc4ccccc4)cnc23)cc1OCC	inconclusive: 14.1 µM [inhibitor, partial curve, poor fit]
Cn1nc(C(=O)N2CCN(c3ccc(Cl)cc3)CC2)c2c1-c1ccccc1S(=O)(=O)C2	inconclusive: 25.1 µM [inhibitor, partial curve]
CC(C)(Sc1ccc(CCN(CCCCC2CCCCC2)C(=O)NC2CCCCC2)cc1)C(=O)O	inactive
Cc1cccc(C)c1NS(=O)(=O)c1ccc2c(c1)[C@H]1C=CC[C@H]1[C@@H](c1ccc(Cl)cc1)N2	inconclusive: 11.2 µM [inhibitor, partial curve, poor fit]
